Test results reported in the supplement of paper PMC3334620.
The full ranking holds about 33,000 sequences; the median of “E-score (-0.5 to 0.5)” is about -0.054, and the highest 2% start at about 0.39. Some of the results follow.

molecular target: Ylr278c (UniProt Q05854); experiment: PBM E-score (8-mer binding enrichment) (E-score (-0.5 to 0.5)); higher = stronger / more preferred TF binding; most listed sequences are background and not binding sites; details: protein concentration: 200 nM; construct: GST-DNA-binding domain
Procedure, shortened: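 The E-score, a modified Wilcoxon-Mann-Whitney statistic, was computed by the Universal PBM Analysis Suite for every ungapped eight-base word pooled with its reverse complement. Scans behind it were normalised with masliner after bound GST-tagged yeast transcription factors were detected with fluorescent anti-GST. The proteins, at about 100-200 nM, had been applied to universal all-10-mer Agilent arrays made double-stranded by primer extension.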

Sequence | PBM E-score
GAATTATA | 0.0291
CTACTACA | 0.00999
AATGTCGA | -0.0976
GGAAGAAC | 0.235
CGACGACA | -0.145
AGGAGTCA | -0.121
CGTTCGAG | -0.21
ACCACGGC | 0.0785
CAATTGTC | -0.0713
ACACTACG | 0.064
GACTTATA | 0.058
GCATTGTA | -0.0424
ATCTCGGA | 0.406
AGTGTCGA | -0.187
CGGGCTTC | 0.366
ACAGGAAC | -0.211
TTCATAAA | -0.12
GGCGACGA | -0.172
AAATGCGA | 0.087
ACGTGGCA | -0.2
CCGCCTCG | 0.187
AGGTTGTA | -0.122
ACCCACGG | -0.0126
GCGCGGAC | 0.294
GTAATTTA | -0.0255

Sequence | PBM E-score
CCCTGGTC | -0.177
CCCAATGC | -0.149
ACCTGAAT | -0.0345
ACCAAAGG | -0.224
CGTTTTAA | -0.117
CTAGATTC | -0.165
CTAACTCA | -0.226
ATCGAACA | -0.0938
CGGATGGC | 0.135
ACATTTTA | -0.00659
GCGTTCGA | -0.11
ATTCGGGC | 0.18
CTACTCAC | -0.0555
ACTCCACA | -0.0234
AACGGTTG | -0.172
AGACGGAA | 0.238
ACGAATTA | -0.126
TCCCTAAA | -0.0873
GAGTATAA | 0.0928
AAAGTGAA | 0.0105
AAGTGACT | -0.201
CCTGGTGA | -0.11
CAATCTCC | 0.375
AACCCGAC | 0.255
GCCAGAGC | -0.222

Sequence | PBM E-score
GGCGCAAA | 0.124
AGCCCAAA | 0.13
CCCGCCAA | 0.193
CGGGCGGC | 0.31
ACAGCAGT | -0.139
CGAAGCGA | 0.0545
AAACTCAA | -0.038
ATGTTTCC | 0.151
CGTGGGTC | -0.163
AGAGGGAC | -0.19
GAGTCGGA | 0.387
GGTGCAAC | 0.113
AGGACGCG | -0.114
CACGACCG | 0.00364
AGCTCGCG | 0.0279
ACGCCGAG | 0.296
AAAAGACG | -0.0309
ACAAGTTA | 0.0955
ACGTCTGC | -0.205
CAGTAGAG | -0.304
CTGGCAAG | -0.195
AGCTTATG | -0.148
ATTATCTC | 0.0905
CGGTTCGA | 0.075
AGAGCCGG | 0.303

Sequence | PBM E-score
TAAGGAAA | -0.131
ATTGTTAC | -0.0111
GGCTGGTA | -0.0823
CCATCGGG | 0.259
AGGTGCAG | -0.16
AGTTGTGC | -0.114
CCGATTCC | 0.393
ATACTGGC | -0.241
GAATTCTC | 0.164
AGAGCCCA | -0.203
GATCCACC | -0.196
AACGTGGT | -0.273
GAAAGCCC | 0.193
ATGAAGAA | -0.0491
GCTCATAC | -0.0327
AGTCTATG | -0.373
ATCAAGCA | -0.087
TATGACGA | 0.0295
CTGCGGTC | -0.00227
CCAGTATA | -0.0769
CCTTAAAA | -0.336
ATCCATAG | 0.0115
AAGGCACT | -0.187
TGAGACAA | -0.0146
ATGCGGTG | -0.0702

Sequence | PBM E-score
GAACCATA | 0.0607
CCTTGAAA | -0.13
ATAAGCAA | -0.0897
TGAGTACA | -0.156
CCCTATGA | -0.181
CCATTGCG | 0.082
CTCATTAA | -0.0505
TCATTGGA | -0.202
TGATGAAA | -0.166
GCAGGAAA | -0.0863
CCGGTAGC | 0.217
CTCAGTTA | 0.0398
CGAAGAAC | 0.02
AGTCTCTA | -0.285
AATTAGTA | -0.116
GTGCGAGA | -0.176
CGGTCGAG | 0.0809
CTCTCTCC | 0.0749
ATTGCACG | 0.101
CTCCCTGC | -0.151
ACACCTCG | 0.0951
GAGGACGA | 0.0565
CAGTCAGC | -0.193
CTTCAAAA | -0.099
AAAATGGA | 0.168

Sequence | PBM E-score
ACTCAATA | -0.101
GAATCGAA | -0.058
CATGTACG | -0.0652
GCTTTATA | 0.095
GCAATAAC | 0.0921
GACCGACA | 0.209
ATAGTATA | 0.0747
AATAGGAC | -0.0636
AATCGTAC | -0.0876
CAGCGTTC | -0.0694
AATGTATA | 0.0371
GCATGGAA | 0.0414
ACGTGACA | -0.198
ACTGGACA | -0.189
GACCGAGC | 0.0856
ACTACTCT | -0.173
ACACCGAA | 0.217
AGCGTCTA | -0.195
GTCCGTCA | 0.289
AGAAACCT | -0.0176
AGCAGCAC | -0.292
TACAACTA | -0.153
ATGAAACA | -0.0545
AGGGGTCG | -0.192
CTGCTGAA | -0.2

Sequence | PBM E-score
CTGTCGTC | -0.18
GACCAGCC | 0.121
AACACTAT | -0.0375
AGTGTCAC | -0.071
CCGTGCAA | 0.115
AGAGTAAG | -0.13
GGATGACC | 0.0307
GAGGAGGA | -0.246
CCCTGCCG | 0.0898
AATTATTG | 0.0721
ACCGGTAA | 0.297
GTGTCGTA | -0.209
ACCGTTAG | -0.177
AGCCAATG | -0.236
AATATGAC | -0.0637
CCTATTAA | 0.0486
CTCTCAGA | -0.312
ACTCGTGG | -0.213
CAGATAAC | 0.123
GCCGTACA | 0.0776
CCCGCATA | 0.176
AGAGAGGA | -0.213
ATTTCTGC | 0.184
CTTAAGCA | -0.0791
CCGCCAAC | 0.234

Sequence | PBM E-score
GTGAGAAA | 0.0525
CCACGGGG | 0.108
AAAGAGTT | -0.257
AAACAACC | -0.0624
GTTAGAAA | -0.0403
AAAGTCCG | 0.482
AGACTGAA | -0.00088
ACCTCCAT | -0.0796
CCCGTTCG | 0.0705
AACTTGGT | -0.115
CACGAGAC | -0.0922
CCGAACTA | 0.316
ATTCAGAG | 0.0283
GTCGGTCA | 0.0634
ACGCCTAG | -0.289
AAACGGTT | -0.183
CGGGTCAC | -0.00367
CGTATCAG | 0.0563
AGAATCGA | -0.141
GTGCGTCA | 0.0395
CAACTAGC | 0.0478
CTTTTAAC | -0.146
GTGCCGTA | 0.0749
GGTACGCA | -0.126
CGGACAGA | 0.29

Sequence | PBM E-score
CCCGGACA | 0.405
ATCCAGCC | -0.0184
CTTATGTA | -0.127
TAACGTAA | -0.145
ACACGCGA | -0.174
TAGATTCA | -0.283
CTGCTAAA | -0.0313
GCGGGACA | 0.214
AGTTACAT | -0.247
CGTGGCGC | -0.0166
AAACGTAA | -0.142
ATATCACA | -0.283
AGATGGTA | 0.0643
CACGGGTA | -0.243
CAAGGGAC | -0.32
AGCGTCTG | -0.136
ACCCTTAG | -0.305
TATTCAGA | -0.18
ATCGTTCC | 0.0747
